# Reference: the supplement of paper PMC10369915
# Some of the results follow. Rule as the data show it: active = 3.2 or more and inactive = the rest. Only a few entries rise above the background.
# B1: BAG3_Y205 (peptide)
# chain: QLPRGYISIPV
# B2: BAG3_Y205_P209L (peptide)
# chain: QLPRGYISILV
# B3: BAG3_Y457_E455K (peptide)
# chain: LMIKEYLTKEL
# B4: BAG3_Y93 (peptide)
# chain: QLRPGYIPIPV
# B5: BARD1_Y156 (peptide)
# chain: SKKVRYVVSKA
# B6: BBS10_Y536 (peptide)
# chain: NRLTDYYEPLL
# B7: BBS10_Y536_P539L (peptide)
# chain: NRLTDYYELLL
# B8: BBS10_Y536_P539L_YF (peptide)
# chain: NRLTDYFELLL
# B9: BBS2_Y644_YF (peptide)
# chain: TMKSRYMELFD
# B10: BBS2_Y648_R643H (peptide)
# chain: HYMELYDLNRD
# B11: BBS4_Y395 (peptide)
# chain: NALAQYQEMEK
# B12: BBS4_Y43_K46R_YF (peptide)
# chain: LIHLHYIRRDF
# B13: BBS4_Y43_YF (peptide)
# chain: LIHLHYIRKDF
# B14: BBS4_Y48_K46R (peptide)
# chain: YIRRDYEACKA
# B15: BBS4_Y48_K46R_YF (peptide)
# chain: FIRRDYEACKA
# B16: BCAR1_Y410_S407T (peptide)
# chain: VDTGVYAVPPP
# B17: BCCIP_Y257 (peptide)
# chain: EEEFFYEKAIL
# B18: BCHE_Y174 (peptide)
# chain: VVSMNYRVGAL
# B19: BCHE_Y505 (peptide)
# chain: ANFAKYGNPNE
# Molecular target: SHP2 C-SH2 domain E139D
# Assay: enrichment score (SH2-bound / input frequency) (ratio); bacterial display of known human phosphotyrosine sites (pTyr-Var adds point mutants) read by sequencing; higher = stronger binding; tyrosines were phosphorylated by kinases first
# Conditions: peptide library: pTyr-Var
# 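Also: displayed peptides selected on beads carrying the immobilized SH2 domain, with library peptides lacking any tyrosine serving as negative controls.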
row,Binder,enrichment score
1,B1,inactive: 0.887
2,B2,inactive: 0.783
3,B3,inactive: 1.83
4,B4,inactive: 0.792
5,B5,inactive: 1.06
6,B6,inactive: 1.03
7,B7,inactive: 1.51
8,B8,inactive: 2.43
9,B9,inactive: 1.09
10,B10,inactive: 1.09
11,B11,inactive: 0.43
12,B12,inactive: 1.49
13,B13,active: 3.83
14,B14,inactive: 0.446
15,B15,inactive: 0.692
16,B16,inactive: 0.508
17,B17,inactive: 0.812
18,B18,inactive: 1.25
19,B19,inactive: 0.655

# Molecular target: SHP2 C-SH2 domain wild-type
# Assay: as above
# Conditions: peptide library: pTyr-Var
row,Binder,enrichment score
1,B1,inactive: 0.846
2,B2,inactive: 1.24
3,B3,inactive: 1.22
4,B4,inactive: 0.599
5,B5,inactive: 1.2
6,B6,inactive: 0.827
7,B7,inactive: 1.27
8,B8,inactive: 2.47
9,B9,inactive: 1
10,B10,inactive: 1.06
11,B11,inactive: 0.466
12,B12,inactive: 1.16
13,B13,active: 3.61
14,B14,inactive: 0.329
15,B15,inactive: 0.417
16,B16,inactive: 0.59
17,B17,inactive: 0.712
18,B18,inactive: 0.968
19,B19,inactive: 0.453

# Molecular target: SHP2 N-SH2 domain L43F
# Assay: as above
# Conditions: peptide library: pTyr-Var
row,Binder,enrichment score
1,B1,inactive: 0.631
2,B2,inactive: 1.4
3,B3,inactive: 1.27
4,B4,inactive: 0.801
5,B5,inactive: 0.93
6,B6,inactive: 0.861
7,B7,inactive: 1.28
8,B8,inactive: 2.01
9,B9,inactive: 1.53
10,B10,active: 3.86
11,B11,inactive: 0.554
12,B12,inactive: 1.18
13,B13,active: 4.07
14,B14,inactive: 0.397
15,B15,inactive: 0.406
16,B16,inactive: 0.585
17,B17,inactive: 0.779
18,B18,inactive: 1.21
19,B19,inactive: 0.491

# Molecular target: SHP2 N-SH2 domain T42A
# Assay: as above
# Conditions: peptide library: pTyr-Var
row,Binder,enrichment score
1,B1,inactive: 0.853
2,B2,inactive: 1.45
3,B3,inactive: 1.16
4,B4,inactive: 0.678
5,B5,inactive: 1.05
6,B6,inactive: 0.779
7,B7,inactive: 1.41
8,B8,inactive: 2.61
9,B9,active: 4.08
10,B10,active: 4.86
11,B11,inactive: 0.481
12,B12,inactive: 1.12
13,B13,active: 3.21
14,B14,inactive: 0.361
15,B15,inactive: 0.467
16,B16,inactive: 0.633
17,B17,inactive: 0.743
18,B18,inactive: 1.23
19,B19,inactive: 0.475

# Molecular target: SHP2 N-SH2 domain T52S
# Assay: as above
# Conditions: peptide library: pTyr-Var
row,Binder,enrichment score
1,B1,inactive: 0.815
2,B2,inactive: 1.67
3,B3,inactive: 1.31
4,B4,inactive: 0.885
5,B5,inactive: 1.22
6,B6,inactive: 1.02
7,B7,inactive: 1.48
8,B8,inactive: 2.48
9,B9,inactive: 1.59
10,B10,active: 3.59
11,B11,inactive: 0.667
12,B12,inactive: 1.48
13,B13,active: 3.55
14,B14,inactive: 0.295
15,B15,inactive: 0.576
16,B16,inactive: 0.601
17,B17,inactive: 0.924
18,B18,inactive: 1.14
19,B19,inactive: 0.588

# Molecular target: SHP2 N-SH2 domain wild-type
# Assay: as above
# Conditions: peptide library: pTyr-Var
row,Binder,enrichment score
1,B1,inactive: 0.733
2,B2,inactive: 1.09
3,B3,inactive: 1.24
4,B4,inactive: 1
5,B5,inactive: 1.18
6,B6,inactive: 1.03
7,B7,inactive: 1.35
8,B8,inactive: 2.57
9,B9,inactive: 0.961
10,B10,inactive: 0.938
11,B11,inactive: 0.608
12,B12,inactive: 1.32
13,B13,active: 4.28
14,B14,inactive: 0.381
15,B15,inactive: 0.585
16,B16,inactive: 0.873
17,B17,inactive: 0.829
18,B18,inactive: 0.951
19,B19,inactive: 0.697
